Results on 40 sequences are retold here after the supplement of paper PMC7826260.

The other results are listed elsewhere or left out. The data describe in vitro nicking of single-stranded DNA by Rep domains (1 h at 37 °C, 3 µM enzyme); the outer parts of the 90-letter strands are left off. Uncut reads are compared with the no-enzyme pool on a log2 scale; strong cutting gives strongly negative numbers. There is no active / inactive call. Reads are scaled to the total, so uncut sequences can rise above 0 when many others are cut.

In this assay the test system is T1, Rep nickase domain of tomato golden mosaic virus.
T1 sequence (Rep 1-124, printed without the tag): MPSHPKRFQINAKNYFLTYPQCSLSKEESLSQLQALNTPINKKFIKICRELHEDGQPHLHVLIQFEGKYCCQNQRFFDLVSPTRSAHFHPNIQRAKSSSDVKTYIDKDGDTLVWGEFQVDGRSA
Nature of the assay: uncleaved DNA left, log2 of reads against the no-enzyme library (log2 ratio); higher = less cleavage (more negative = more Rep cleavage of the k-mer); sequences stand for … in CTCGTCCG…ACCGGAGA
As to the method: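 A pool of 90-nt single-stranded DNAs with seven random bases just before the constant AC of the nick site (name = the seven bases) was cut by 3 µM recombinant His6-SUMO-tagged Rep nickase domain (300 nM DNA, 50 mM HEPES pH 8.0, 50 mM NaCl, 1 mM MnCl2, 1 h, 37 °C, three replicates). Uncut DNA was amplified and sequenced.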
With CCACGGT, the “uncleaved DNA left (log2)” value was 0.132.

In the case of ACGGTGC, the “uncleaved DNA left (log2)” value was found to be 0.0747.

Regarding CTCCAGA, the “uncleaved DNA left (log2)” value was -0.0469.

Take GTAACCG: the “uncleaved DNA left (log2)” value is -0.00465.

With GGTTACT, the “uncleaved DNA left (log2)” value was 0.0455.

Take CAATGGA: the “uncleaved DNA left (log2)” value is 0.0223.

As to GAGGTGA, the “uncleaved DNA left (log2)” value is -0.0398.

Turning to CGGCGTC, the “uncleaved DNA left (log2)” value is -0.042.

In the case of AAACTAT, the “uncleaved DNA left (log2)” value is -0.00919.

As for AGCGCTT, the “uncleaved DNA left (log2)” value stood at 0.0761.

In the case of AAACTCT, the “uncleaved DNA left (log2)” value is -0.117.

As for GTGCAAT, the “uncleaved DNA left (log2)” value turned out to be 0.0732.

As for CCCCAGG, the “uncleaved DNA left (log2)” value worked out at 0.00665.

As for GGGATCA, the “uncleaved DNA left (log2)” value is -0.0315.

On to TAGCATC, for which the “uncleaved DNA left (log2)” value is -0.163.

Consider GGCACGG, for which the “uncleaved DNA left (log2)” value stood at 0.0588.

CCTGGGT: the “uncleaved DNA left (log2)” value was found to be 0.00771.

As for CCTATTC, the “uncleaved DNA left (log2)” value was -0.0665.

In the case of GTCGGGA, the “uncleaved DNA left (log2)” value amounted to 0.0422.

With GTCGACA, the “uncleaved DNA left (log2)” value is 0.0709.

On to GACCGCA, for which the “uncleaved DNA left (log2)” value came to 0.0518.

Regarding ATTGCAA, the “uncleaved DNA left (log2)” value was 0.0696.

Regarding CTGGAGA, the “uncleaved DNA left (log2)” value is -0.00614.

Take CCTGTGG: the “uncleaved DNA left (log2)” value came to 0.114.

With AGCCACC, the “uncleaved DNA left (log2)” value was -0.0713.

For the sequence AGGCATA, the “uncleaved DNA left (log2)” value amounted to 0.00303.

For GATGCCC, the “uncleaved DNA left (log2)” value is -0.111.

On to CCGCGCC, for which the “uncleaved DNA left (log2)” value was -0.262.

For the sequence AGAGGTA, the “uncleaved DNA left (log2)” value is 0.164.

Take ATCTCTT: the “uncleaved DNA left (log2)” value is -0.145.

For the sequence GCTGGCG, the “uncleaved DNA left (log2)” value was determined as 0.0558.

Consider TTTCCCG, for which the “uncleaved DNA left (log2)” value was -0.0353.

On to ATGCGTT, for which the “uncleaved DNA left (log2)” value was -0.0373.

Take TGGTCGT: the “uncleaved DNA left (log2)” value turned out to be 0.0125.

As to CAAAGGC, the “uncleaved DNA left (log2)” value was determined as 0.00419.

As for GTGGTTT, the “uncleaved DNA left (log2)” value was -0.073.

For AGGTCGT, the “uncleaved DNA left (log2)” value was -0.0172.

Take CCCGCTT: the “uncleaved DNA left (log2)” value was -0.173.

AGAACTG: the “uncleaved DNA left (log2)” value was 0.198.

Take CGAAAGG: the “uncleaved DNA left (log2)” value is 0.136.
